Experimental data: PubChem BioAssay AID1768 (National Center for Advancing Translational Sciences (NCATS), 2009)
Out of some 270,000 compounds screened, about 620 (0.23%) were called active. The inconclusive results got no clear call from the source; some entries with a clear call stand among them for comparison. Calls follow the shape of the dose curve; as a rule, active = well fitted inhibition curve with a large enough effect in the polarisation, with a control signal flat (not every such curve was filed as active); inconclusive = small, poorly fitted or top-dose-only effect, or effect the other way, or a change in a side signal; inactive = no such curve, though single readings can be large or run the other way; the % refers to the polarisation. Potencies of inconclusive entries are doubtful fits and often do not repeat. A note “side channel” means that the fit belongs to a control or component signal, not to the main read-out.

These molecules were tested against Menin (Homo sapiens) (UniProt O00255) (assay: qHTS Assay for Inhibitors Targeting the Menin-MLL Interaction in MLL Related Leukemias: Competition With Texas Red Labeled MLL-derived Mutant Peptide). Conditions: fluorescence polarization; series mostly up to 61.6 µM.
Potency is read from the fitted curve at half-maximal effect; tags tell the direction and shape of the fitted curve or compound fluorescence and quenching.

UniProt O00255, sequence (O00255 whole entry, looked up): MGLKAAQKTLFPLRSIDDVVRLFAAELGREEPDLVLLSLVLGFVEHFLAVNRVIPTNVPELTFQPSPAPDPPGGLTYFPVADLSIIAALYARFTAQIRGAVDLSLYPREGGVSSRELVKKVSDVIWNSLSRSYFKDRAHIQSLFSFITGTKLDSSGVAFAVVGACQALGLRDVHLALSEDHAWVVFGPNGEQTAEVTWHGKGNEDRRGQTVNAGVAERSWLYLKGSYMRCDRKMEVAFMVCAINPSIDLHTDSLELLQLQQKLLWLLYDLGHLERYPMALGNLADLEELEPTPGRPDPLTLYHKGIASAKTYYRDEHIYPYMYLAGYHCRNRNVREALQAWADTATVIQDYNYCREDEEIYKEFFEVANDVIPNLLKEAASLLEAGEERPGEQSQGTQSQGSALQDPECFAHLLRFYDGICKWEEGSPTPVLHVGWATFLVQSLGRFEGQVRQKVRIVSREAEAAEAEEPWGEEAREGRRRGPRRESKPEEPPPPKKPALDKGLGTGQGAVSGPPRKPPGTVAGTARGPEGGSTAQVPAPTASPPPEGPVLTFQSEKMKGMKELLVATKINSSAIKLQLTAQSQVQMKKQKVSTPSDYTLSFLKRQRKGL

Compound	Potency
CCOCCCNc1c(CC)c(C)c(C#N)c2nc3ccccc3n12	inconclusive: 14.1 µM [fluorescent, side channel, partial curve]
Cc1c(-c2c(C#N)c(N)nc3c2CCCCCC3)cnn1C	inactive
CNC(=S)N(CCc1c(C)[nH]c2ccc(C)cc12)Cc1cc(OC)c(OC)c(OC)c1	inconclusive: 12.6 µM [quencher, side channel, single point]
Cc1nc(SCc2ccc(C(=O)O)cc2)nc2c1CCCC2	inconclusive: 15.8 µM [quencher, side channel, partial curve]
CC(CC(=O)N1CCN(c2ccccc2)CC1)S(=O)(=O)c1ccc2c(c1)NC(=O)CS2 (stereo unspecified)	inactive
Cc1oc(-c2ccccc2)cc1C(=O)Nc1cccc(/C=C\C(=O)O)c1	inconclusive: 14.1 µM [quencher, side channel, partial curve]
Cc1ccc(S(=O)(=O)c2c(C)cc(C)nc2N2CCCC2)cc1	inconclusive: 12.6 µM [fluorescent, side channel, partial curve]
Cc1ccccc1-c1ccc(C(=O)Nc2cccc(F)c2)o1	inconclusive: 31.6 µM [quencher, side channel, single point]
Cc1cc(C(=O)CSc2nnnn2-c2ccc(O)cc2)c(C)n1Cc1ccc2c(c1)OCO2	inconclusive: 39.8 µM [inhibitor, single point]
CCC(C)N1C(=O)/C(=C/c2c(NCCCOC(C)C)nc3c(C)cccn3c2=O)SC1=S (stereo unspecified)	inconclusive: 22.4 µM [fluorescent, side channel, partial curve]
Cc1cc(C)c2c(=O)[nH]c(SCC(=O)Nc3ccc(Br)cc3)nc2n1	inconclusive: 25.1 µM [quencher, side channel, single point]
O=C(Nc1ccc(Cl)cc1)[C@@H]1[C@@H]2C(=O)N(c3ccc(Cl)cc3Cl)C(=O)[C@@H]2[C@H]2C=CC=NN21	inconclusive: 31.6 µM [quencher, single point]
Oc1ccccc1-c1cc(-c2ccc(Cl)cc2)n[nH]1	inconclusive: 7.94 µM [quencher, side channel, partial curve]
C=CCNc1nc2ccccc2nc1NS(=O)(=O)c1ccc(Cl)cc1	inconclusive: 14.1 µM [quencher, side channel, partial curve]
O=C(Cc1ccc2ccccc2c1)Nc1ccccc1Br	inconclusive: 35.5 µM [inhibitor, single point]
COc1ccc2c(Cl)c(C(=O)NCCc3ccc(S(N)(=O)=O)cc3)sc2c1	inconclusive: 31.6 µM [fluorescent, single point]
CCOC(=O)CSc1nnc(-c2c[nH]c3ccccc23)n1CC	inconclusive: 6.31 µM [fluorescent, side channel, single point]
CCOc1ccc(NC(=O)CC2C(=O)N(c3ccccc3)C(=S)N2Cc2ccccn2)cc1 (stereo unspecified)	inconclusive: 39.8 µM [quencher, side channel, single point]

Compound	Potency
O=C(Nc1ccc(S(=O)(=O)N2CCc3ccccc32)cc1)c1ccco1	inconclusive: 25.1 µM [quencher, side channel, partial curve]
CCOC(=O)c1cc2cc(OC)ccc2nc1C	inactive
CCOc1ccc2[nH]c(C(=O)N/N=C/c3ccccc3OC)cc2c1	inconclusive: 28.2 µM [quencher, side channel, partial curve]
CCOc1ccc2c(=O)c(Oc3ccccc3)c(C)oc2c1	inconclusive: 2 µM [inhibitor, partial curve]
Cc1ccc(-n2nc3ccc(NC(=S)NC(=O)/C=C/c4ccco4)cc3n2)cc1	inconclusive: 31.6 µM [quencher, side channel, single point]
CCOC(=O)c1c(NC(=S)Nc2cc([N+](=O)[O-])ccc2OC)sc2c1CCCCC2	inconclusive: 12.6 µM [quencher, side channel, partial curve]
COc1ccc(Nc2nc(Cl)nc(N3CCN(c4ccc(OC)cc4)CC3)n2)cc1	inconclusive: 14.1 µM [quencher, side channel, partial curve]
COCC(=O)Nc1nnc(C2CCCCC2)s1	inconclusive: 8.91 µM [inhibitor, single point]
COc1cc(C(=O)NCc2ccc(C)cc2)ccc1OCc1c(C)noc1C	inconclusive: 39.8 µM [fluorescent, single point]
CCC(C)Nc1nc2c(c(=O)[nH]c(=O)n2C)n1CCOc1ccccc1 (stereo unspecified)	inconclusive: 7.08 µM [inhibitor, full curve]
O=C(Nc1ccc(Br)cc1)C1CC(O)CN1C(=O)Oc1ccccc1 (stereo unspecified)	inconclusive: 3.98 µM [quencher, side channel, full curve, poor fit]
COc1ccc(-c2cc(C3CC3)nc(SCC(=O)c3cccs3)c2C#N)cc1	inconclusive: 25.1 µM [inhibitor, partial curve]
CC(C)C(C(=O)O)N1C(=O)/C(=C/c2ccc(Br)cc2)SC1=S (stereo unspecified)	inconclusive: 22.4 µM [quencher, side channel, partial curve]
COc1cccc(C2C(C(=O)c3ccco3)=C(O)C(=O)N2CCN(C)C)c1OC (stereo unspecified)	inactive
COc1ccc(OC)c(CCNC(=O)CS(=O)(=O)Cc2nc(-c3ccc(C)cc3)oc2C)c1	inconclusive: 4.47 µM [inhibitor, full curve]
COc1ccc(C2CC(c3ccccc3)=NN2c2ccc(/C=N/NC(=O)c3ccncc3)cc2)cc1 (stereo unspecified)	inconclusive: 6.31 µM [quencher, side channel, partial curve]
CN(C)CCC=C1c2ccccc2C=Cc2ccccc21	inconclusive: 17.8 µM [fluorescent, side channel, partial curve]
COc1ccc(CN(C)CC(O)COc2ccc(-c3ccccc3)cc2)cc1OC (stereo unspecified)	inconclusive: 22.4 µM [inhibitor, single point]
